Structures are written as SMILES. The list shows a part of the results.

The test system of one test is HepG2. Briefly: cytotoxicity call (relative viability < 0.9). The note with it: 10 µM.
`COc1ccc(S(=O)(=O)N(C)C[C@@H]2Oc3c(NS(=O)(=O)c4cn(C)cn4)cccc3C(=O)N([C@@H](C)CO)C[C@@H]2C)cc1`: the cytotoxicity call was “inactive”.

Consider `COc1ccc(CN(C)C[C@@H]2OCCCC[C@H](C)Oc3ccc(NS(=O)(=O)c4ccc(Cl)cc4)cc3C(=O)N([C@@H](C)CO)C[C@@H]2C)cc1`, for which the cytotoxicity call is “inactive”.

For the compound `C[C@H](CO)N1C[C@H](C)[C@@H](CN(C)S(=O)(=O)c2ccccc2)OCCCC[C@H](C)Oc2ccc(NC(=O)Nc3ccccc3)cc2C1=O`, the cytotoxicity call is “inactive”.

For `Cc1ccc(S(=O)(=O)N(C)C[C@H]2Oc3ccc(NS(=O)(=O)c4c(C)noc4C)cc3C(=O)N([C@H](C)CO)C[C@@H]2C)cc1`, the cytotoxicity call was “inactive”.

Regarding `Cc1ccc(S(=O)(=O)Nc2ccc3c(c2)C(=O)N([C@@H](C)CO)C[C@@H](C)[C@H](CN(C)Cc2ccc(-c4ccccc4)cc2)O3)cc1`, the cytotoxicity call is “inactive”.

Consider `COCC#Cc1ccc2c(c1)O[C@@H](CN(C)C(=O)COC)[C@H](C)CN([C@H](C)CO)S2(=O)=O`, for which the cytotoxicity call was “inactive”.

For the compound `Cc1ccc(S(=O)(=O)N(C)C[C@@H]2Oc3ccc(NC(=O)C4CC4)cc3C(=O)N([C@@H](C)CO)C[C@H]2C)cc1`, the cytotoxicity call was “active”.

Turning to `Cc1c(-c2ccccc2)n(C[C@@H](O)CN)c2ccccc12`, the cytotoxicity call is “active”.

In the case of `O=c1ncccn1[C@H]1O[C@H](CO)[C@@H](O)[C@@H]1O`, the cytotoxicity call is “inactive”.

In the case of `C[C@@H]1CCCCO[C@H](CN(C)S(=O)(=O)c2ccc(Cl)cc2)[C@@H](C)CN([C@H](C)CO)C(=O)c2cc(NC(=O)CCC(F)(F)F)ccc2O1`, the cytotoxicity call is “inactive”.

As to `c1ccc(-c2nc(-c3cccs3)[nH]c2-c2ccccc2)cc1`, the cytotoxicity call was “inactive”.

The subject of a further test is S. aureus RN4220. Briefly: growth inhibition call (relative growth <= 0.2). The note with it: 50 µM.
As for `C[C@@H]1CN([C@@H](C)CO)C(=O)c2cc(Br)cnc2O[C@@H]1CN(C)C(=O)Nc1ccc(F)cc1`, the growth inhibition call is “inactive”.

On to `C[C@@H]1CN([C@H](C)CO)C(=O)Cc2cc(NC(=O)Nc3ccc(C(F)(F)F)cc3)ccc2O[C@H]1CN(C)Cc1ccc(C(=O)O)cc1`, for which the growth inhibition call is “inactive”.

Take `C[C@@H]1CN([C@@H](C)CO)C(=O)Cc2cc(NC(=O)Cn3cnnn3)ccc2O[C@@H]1CN(C)S(C)(=O)=O`: the growth inhibition call was “inactive”.

With `C[C@@H]1CN([C@H](C)CO)C(=O)c2cc(NS(C)(=O)=O)ccc2O[C@@H]1CN(C)S(=O)(=O)c1ccccc1`, the growth inhibition call is “inactive”.

On to `C[C@@H]1CN([C@@H](C)CO)C(=O)c2cc(NC(=O)c3ccncc3)ccc2O[C@@H](C)CCCCO[C@@H]1CN(C)C(=O)C1CCCCC1`, for which the growth inhibition call is “inactive”.

In the case of `Cc1ccc(S(=O)(=O)N2C[C@@H](O)COC[C@H]3O[C@@H](CC(=O)N[C@@H]4CCN(Cc5ccccc5)C4)CC[C@@H]32)cc1`, the growth inhibition call was “inactive”.

In the case of `C[C@@H]1CN([C@H](C)CO)C(=O)Cc2cc(NC(=O)Nc3ccc4c(c3)OCO4)ccc2O[C@@H]1CN(C)C(=O)Nc1cccc2ccccc12`, the growth inhibition call was “inactive”.

As for `CN1C(=O)c2cc(NC(=O)C3CCCC3)ccc2OC[C@H]2O[C@H](CC(=O)NCCc3ccncc3)CC[C@H]21`, the growth inhibition call was “inactive”.

For the compound `Cc1noc(C)c1NC(=O)N(C)C[C@@H]1OCCCC[C@@H](C)Oc2ccc(NC(=O)C3CCCCC3)cc2C(=O)N([C@H](C)CO)C[C@H]1C`, the growth inhibition call was “inactive”.

For `COCC#Cc1cnc2c(c1)C(=O)N([C@H](C)CO)C[C@@H](C)[C@H](CN(C)S(=O)(=O)c1cccc(OC)c1)O2`, the growth inhibition call is “inactive”.

For `C[C@H](CO)N1C[C@H](C)[C@H](CN(C)S(=O)(=O)c2cn(C)cn2)Oc2c(NC(=O)c3cnccn3)cccc2C1=O`, the growth inhibition call was “inactive”.

Turning to `C[C@H]1CCCCO[C@H](CN(C)C(=O)Nc2ccc(C(F)(F)F)cc2)[C@@H](C)CN([C@@H](C)CO)C(=O)c2cc(NC(=O)Nc3ccccc3)ccc2O1`, the growth inhibition call was “inactive”.

With `CC(C)NC(=O)Nc1ccc2c(c1)CC(=O)N([C@@H](C)CO)C[C@@H](C)[C@H](CN(C)Cc1ccc(Oc3ccccc3)cc1)O2`, the growth inhibition call is “inactive”.

On to `NC1CCN(C(=O)Nc2nncs2)CC1`, for which the growth inhibition call was “inactive”.

With `COc1ccc(NC(=O)N(C)C[C@@H]2Oc3ccc(NC(=O)Cn4cnnn4)cc3CC(=O)N([C@@H](C)CO)C[C@@H]2C)cc1`, the growth inhibition call is “inactive”.

`C[C@@H]1CN([C@H](C)CO)C(=O)c2cc(NC(=O)Nc3cccc4ccccc34)ccc2O[C@@H]1CN(C)Cc1ccc(C(=O)O)cc1`: the growth inhibition call was “inactive”.

Take `C[C@@H]1CN([C@@H](C)CO)C(=O)c2cccc(NC(=O)C3CC3)c2O[C@H]1CN(C)Cc1ccc(C(=O)O)cc1`: the growth inhibition call is “inactive”.

As for `Cc1ccc2nncn2n1`, the growth inhibition call was “inactive”.

In the case of `Cn1cnc(S(=O)(=O)N2C[C@@H](O)COC[C@H]3O[C@H](CC(=O)NCc4cccc(F)c4)CC[C@@H]32)c1`, the growth inhibition call is “inactive”.

These data come from the antibiotic and cytotoxicity screens of Wong et al. (2023).
